According to patent US20060135770A1, “PARP inhibitors” (Kudos Pharmaceuticals Ltd., priority 2004, published 2006):

Molecular target: Mammalian PARP, isolated from Hela cell nuclear extract (Homo sapiens, UniProt P09874)
Assay: PARP inhibition FlashPlate assay (3H-NAD incorporation, scintillation counting)
Assay type: biochemical
Conditions: PARP enzyme activity; NAD 5 μM; 30° C.; read-out: IC50
Experimental: In order to assess the inhibitory action of the compounds, the following assay was used to determine IC50 values or percentage inhibition at a given concentration.
The total assay volume per well was 40 μl.
After 10 minutes incubation at 30° C. the reactions were initiated by the addition of a 10 μl reaction mixture, containing NAD (5 μM), ^3H-NAD and 30mer double stranded DNA-oligos. Designated positive and negative reaction wells were done in combination with compound wells (unknowns) in order to calculate % enzyme activities. The plates were then shaken for 2 minutes and incubated at 30° C. for 45 minutes.
Following the incubation, the reactions were quenched by the addition of 50 μl 30% acetic acid to each well. The plates were then shaken for 1 hour at room temperature.
The plates were transferred to a TopCount NXT (TRADE MARK) (Packard, UK) for scintillation counting. Values recorded are counts per minute (cpm) following a 30 second counting of each well.
The % enzyme activity for each compound is then calculated using the following equation: [formula] […] Such IC50 values are used as comparative values to identify increased compound potencies.

Row | IC50 | Compound
1 | < 10000 nM | CCCNC(=O)c1cccc(COc2ccccc2C(N)=O)c1 [Compound 14]
2 | < 500 nM | Cn1cc(C(=O)N2CCN(C(=O)c3cccc(COc4ccccc4C(N)=O)c3)CC2)c(C(F)(F)F)n1 [Compound 59]
3 | < 500 nM | NC(=O)c1ccccc1OCc1cccc(C(=O)N2CCN(C(=O)Nc3ccccc3F)CC2)c1 [Compound 28]
4 | < 100 nM | COc1cccc(NC(=O)N2CCN(C(=O)c3cc(COc4ccc(F)cc4C(N)=O)ccc3F)CC2)c1 [Compound 201]
